In PubChem BioAssay AID652104 (National Center for Advancing Translational Sciences (NCATS), 2013):
Values joined by “and” are separate entries in the source; they are usually repeats but may differ in a detail not shown here. Identical values can stand only once. In all, about 410,000 compounds went through this assay and about 7,200 (1.8%) were called active. This list was built around the results that the source calls inconclusive (neither active nor inactive); the mix of calls is not that of the screen. Calls come from the whole dose curve; as a rule, active = well fitted activation curve with a large enough effect; inconclusive = small, poorly fitted or top-dose-only effect, or another doubt; inactive = no such curve, though single readings can be large or run the other way. Potencies of inconclusive entries are doubtful fits and often do not repeat.

test: qHTS of TDP-43 Inhibitors; conditions: TDP-43 expressing yeast growth rescue, BacTiter-Glo, 24 h; growth rescue (activation): at 46.1 µM (top of the series) unless noted; note: nearly all actives have a fitted effect of over 50% in size; for growth rescue (activation): % of control where 0% means no effect
Method in brief: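 Growth rescue of TDP-43-toxic yeast measured as ATP luminescence (BacTiter-Glo). Cells grown to mid-log in raffinose, induced in galactose at OD600=0.02, exposed to compound 24 hr at 30 deg C.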
Potency is the fitted concentration of half-maximal effect; tags give direction and shape of the fitted curve.

| SMILES | Potency | growth rescue (activation) |
| --- | --- | --- |
| Cc1ccc(-c2nnc(NC(=O)c3ccc([N+](=O)[O-])o3)o2)c(C)c1 | inconclusive: 6.31 µM [activator, partial curve] | – |
| Cn1cc(C(N)=O)c2ccccc21 | – | inactive: 17.5% |
| COC(=O)c1ccccc1NC(=S)NC(=O)c1ccccc1 | inconclusive: 35.5 µM [activator, single point] | – |
| CCc1cc(=O)oc2cc3oc(C)c(C)c3cc12 | active: 3.55 µM | – |
| COc1cccc(C(C)(O)c2nc(-c3ccc(OC)nc3)cs2)c1 (stereo not drawn) | inconclusive: 35.5 µM [activator, partial curve] | – |
| Nc1ccccc1SC(CC(=O)c1ccccc1)c1cccc([N+](=O)[O-])c1 (stereo not drawn) | active: 25.1 µM | – |
| CCc1ccc2oc(C(=O)Nc3cccnc3)c(C)c2c1 | – | inactive: -8.52% |
| Cc1cc(CSc2ccc(Cl)cc2)ccc1N | inconclusive: 15.8 µM [activator, single point] | – |
| Cc1ccc(NC(=O)c2oc3ccccc3c2COC(C)C)cc1S(=O)(=O)N1CCOCC1 | inconclusive: 35.5 µM [activator, single point] | – |
| COc1cccc(/C=N/NC(=O)c2cccc([N+](=O)[O-])c2)c1OS(=O)(=O)c1ccccc1 | inconclusive: 3.55 µM [activator, full curve] | – |
| CCc1ccc(Nc2nc(C)cc(C)n2)cc1 | inconclusive: 10 µM [activator, single point] | – |
| CCCCNC(=O)C1c2ccccc2OCC(=O)N1Cc1ccco1 (stereo not drawn) | inconclusive: 35.5 µM [activator, partial curve, poor fit] | – |
| CCOC(=O)Cn1nc(/C=C/c2ccc(C)cc2)ccc1=O | inconclusive: 15.8 µM [activator, partial curve] | – |
| Cc1noc(C)c1COc1ccccc1C(=O)N(C)Cc1ccc(C(C)(C)C)cc1 | active: 35.5 µM | – |
| CN(CC(=O)Nc1cccc(F)c1)C(=O)/C=C/c1cc(Br)ccc1OC(F)F | active: 20 µM | – |
| Cc1ccc(S(=O)(=O)N(C)c2ccccc2C(=O)Nc2ccc3c(c2)OCCO3)cc1 | inconclusive: 12.6 µM [activator, partial curve] | – |
| O=C(Nc1ccccc1)c1cc(C2CCCN(C(=O)c3cccs3)C2)on1 (stereo not drawn) | inconclusive: 11.2 µM [activator, partial curve] | – |
| COc1cccc(C(NC(C)=O)c2nc(-c3cccs3)cs2)c1 (stereo not drawn) | inconclusive: 0.562 µM [activator, full curve] | – |
| CN1C(=O)N(C)c2cccc3cccc1c23 | inconclusive: 11.2 µM [activator, partial curve] | – |
| COc1ccc(CCN(C)C2CC(=O)N(c3ccccc3)C2=O)cc1OC (stereo not drawn) | inconclusive: 3.16 µM [activator, partial curve] | – |
| CC[C@@H]1C(c2ccccc2)=NN(c2ccc(Br)cc2)[C@H]1C(=O)N1CCOC1=O | inconclusive: 35.5 µM [activator, single point] | – |
| Cc1ncc(CO)c2c1Oc1nc(-c3ccccc3Cl)nc(SCc3ccccc3F)c1C2 | – | inactive: 19% |
| O=C(Nc1ccc(N2CCCC2)c(Cl)c1)c1ccc2c(c1)OCCO2 | inconclusive: 11.2 µM [activator, partial curve] | – |

| SMILES | Potency | growth rescue (activation) |
| --- | --- | --- |
| O=C(CSc1nc(=O)n(CCCN2CCOCC2)c2c1CCC2)Nc1ccc(F)cc1 | – | inactive: 6.9% |
| O=C1CC(N2CCN(c3ccc(F)cc3)CC2)C(=O)N1c1ccc(F)cc1 (stereo not drawn) | inconclusive: 12.6 µM [activator, partial curve] | – |
| Cc1[nH]c(=O)c(Cc2ccccc2)c(O)c1C#N | – | inactive: 10.1% |
| O=c1n(Cc2ccccc2Cl)c2ccccc2c2nc(-c3ccccc3)nn12 | – | inactive: 0.0851% |
| COc1cc(/C=N/NC(=O)CC2(C)OCCCO2)ccc1OCc1ccc(Cl)cc1Cl | inconclusive: 35.5 µM [activator, single point] | – |
| COc1ccc(Nc2nc3ccc(OC)cc3s2)cc1 | inconclusive: 11.2 µM [activator, partial curve] | – |
| Nc1cccc2c1C(=O)N(C(=O)/C=C/c1cccc(F)c1)C2=O | inconclusive: 22.4 µM [activator, single point] | – |
| COc1ccc(NC(=S)NC2CCCCCC2)c(OC)c1 | inconclusive: 11.2 µM [activator, single point] | – |
| CN(C)c1ccccc1-c1cc(NC=O)c2ncc(-c3cccc(C(F)(F)F)c3)n2c1 | inconclusive: 35.5 µM [activator, single point] | – |
| Cc1cc(C)c(S(=O)(=O)c2cc(F)ccc2C)c(Cl)n1 | inconclusive: 15.8 µM [activator, single point] | – |
| O=C1CC(N2CCOCC2)C(=O)N1c1cc(Cl)cc(Cl)c1 (stereo not drawn) | inconclusive: 25.1 µM [activator, single point] | – |
| CCC(Oc1ccccc1-c1nnc(-c2ccccc2)o1)C(=O)Nc1ccc(C(C)=O)cc1 (stereo not drawn) | – | inactive: 3.9% |
| Cc1cc(C)n(-c2ccc(C(=O)NCC(=O)Nc3cc(Cl)ccc3Cl)cc2)n1 | inconclusive: 15.8 µM [activator, partial curve] | – |
| Cc1cccc(COC[C@H](CC(C)C)N2CCN(C(=O)c3ccc(C(F)(F)F)cc3)CCC2=O)c1 | inconclusive: 20 µM [activator, partial curve] | – |
| CCc1ccc(-n2c(=O)c3cccnc3n2CC(=O)NCc2ccccc2)cc1 | – | inactive: 2.57% |
| COC(=O)CNC(c1ccccc1Cl)c1cc(Br)ccc1NC(=O)CCN1CCOCC1 (stereo not drawn) | active: 17.8 µM | – |
| COC(=O)c1cccc(C(=O)Nc2ccc(C)cc2)n1 | inconclusive: 14.1 µM [activator, partial curve] | – |
| O=c1ccc2cc3c(-c4ccccc4)coc3cc2o1 | inconclusive: 11.2 µM [activator, partial curve] | – |
| CC(C)n1nc(C(=O)Nc2nnc(C3CC3)s2)c2ccccc2c1=O | inconclusive: 35.5 µM [activator, single point] | – |
| COc1ccc(C2(C(=O)O)CCCC2)cc1 | inconclusive: 12.6 µM [activator, single point] | – |
| CCC(C(=O)NC(C)(C)C)n1c(-c2ccccc2)nc2ccccc21 (stereo not drawn) | inconclusive: 10 µM [activator, partial curve, poor fit] | – |
| CC(=O)NNC(=S)NC(=O)c1ccccc1 | inconclusive: 35.5 µM [activator, single point] | – |
| COc1ccc(Cc2nnc(NC(=O)c3ccco3)s2)cc1 | inconclusive: 11.2 µM [activator, partial curve] | – |

| SMILES | Potency | growth rescue (activation) |
| --- | --- | --- |
| COC(=O)c1c(C)oc2ccc(N(C(=O)c3ccncc3)S(=O)(=O)c3ccc(OC)cc3)cc12 | inconclusive: 12.6 µM [activator, partial curve] | – |
| O=C(NC(=S)N(Cc1ccccc1)c1ccccn1)C1CCCCC1 | inconclusive: 10 µM [activator, partial curve] | – |
| COc1cc2c(cc1/C=C/C(=O)O)OC(C)C2 (stereo not drawn) | inconclusive: 25.1 µM [activator, single point] | – |
| C[C@@H]1CN([C@H](C)CO)C(=O)c2c(c3ccccc3n2C)-c2ccccc2CO[C@@H]1CN(C)C(=O)Nc1ccccc1C(F)(F)F | active: 20 µM | – |
| CSc1ccccc1C(=O)NCCOc1cccc(C)c1 | inconclusive: 15.8 µM [activator, single point] | – |
| COc1cc2c(cc1OC)CN(C(=O)Nc1ccccc1)CC2 | inconclusive: 35.5 µM [activator, partial curve] and inconclusive: 8.91 µM [activator, single point] | – |
| Clc1ccc(-c2nn3c(C4COc5ccccc5O4)nnc3s2)cc1 (stereo not drawn) | inconclusive: 14.1 µM [activator, partial curve] | – |
| CCC(C)Nc1nc(N)c([N+](=O)[O-])c(NCc2ccccc2)n1 (stereo not drawn) | active: 17.8 µM | – |
| Cn1cc(CN(C(=O)Nc2ccccc2)C2CCCCC2)c2ccccc21 | inconclusive: 35.5 µM [activator, single point] | – |
| COc1ccc(-c2nc3sc(CCNC(=O)c4ccco4)c(C)n3n2)cc1 | inconclusive: 35.5 µM [activator, single point] | – |
| COc1ccccc1-c1ccc(/C=C2/C=C(C)OC2=O)o1 | – | inactive: -0.884% |
| COc1c(C)cccc1C(=O)Nc1ccc(-c2nc3ccccc3s2)c(Cl)c1 | inconclusive: 0.562 µM [activator, full curve, poor fit] | – |
| CCn1c2ccccc2c2cc(NC(=O)CSc3nnc(-c4cccc(Cl)c4)o3)ccc21 | inconclusive: 3.55 µM [activator, partial curve] | – |
| Nc1c(C(=O)c2ccc(Cl)cc2)oc2ccccc12 | – | inactive: 15% |
| CC1CCCN(S(=O)(=O)c2cccc3nonc23)C1 (stereo not drawn) | inconclusive: 11.2 µM [activator, single point] | – |
| C=CCn1c2ccccc2c(=O)c2cc(C#CC[C@@H](C)O)ccc21 | – | inactive: 3.6% |
| Cn1c(=O)n(Cc2c(F)cccc2Cl)c(=O)c2c1nc1n2CCN1c1ccc(F)cc1 | – | inactive: 9.24% |
| Cc1ccc2c(c1)c(C)c(C)n2CC(O)Cn1nc(C)c(Br)c1C (stereo not drawn) | inconclusive: 28.2 µM [activator, single point] | – |
| COc1ccc(C2=C(N3CCN(c4cccc(C)c4C)CC3)c3ccccc3C2=O)cc1 | – | inactive: 10.1% |
| Cc1c(C(=O)NCc2cccc(Cl)c2)sc2nc3n(c(=O)c12)CCCC3 | active: 22.4 µM | – |
| CCOC(=O)c1cc(=O)n2nc(-c3ccccc3F)nc2s1 | inconclusive: 14.1 µM [activator, single point] | – |
| CCN1Cc2c(/C=C/c3ccccc3)nc3ccc(OC)cc3c2N(c2cccc(Cl)c2)C1 | inconclusive: 14.1 µM [activator, partial curve] | – |
